# According to PubChem BioAssay (NCATS):
# Where “and” joins values, the source holds several entries; their conditions need not be identical. Equal values may be shown once. The shares of active, inactive and inconclusive entries below differ from those in the screen. For some assays here: Potencies beside an inconclusive call are fits to weak or partial responses and may not hold up. Calls of active or inactive are those of the source. The call rests on the fitted dose curve; in most records, active means well fitted curve in the direction sought with a large enough effect; inconclusive means small, poorly fitted or top-dose-only effect, or another doubt; inactive means no such curve, though single readings can be large; an effect the other way counts as inactive or inconclusive.
# Assays:
# MKL-2 = assay: qHTS assay to identify novel small-molecules to repurpose for Merkel cell carcinoma treatment (AID 1296009); details: MCC and control cell lines, CellTiter-Glo viability, 72 h; activity change, negative = cytotoxicity: at 46 µM (top of the series); further: nearly all actives have a fitted effect of over 60% in size
# Method in brief: (§1)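 Dose-response viability screen; 72 hr exposure at 37 degree celsius; CellTiter-Glo added, 10 min room temperature, luminescence read; RLUs scaled between no-cell and DMSO wells.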
# UISO = assay: as above; details: MCC and control cell lines, CellTiter-Glo viability, 72 h; series mostly up to 46 µM
# Method in brief: as §1
# CASKI = assay: Primary qHTS to identify gynecologic anti-cancer compounds using libraries of approved drugs and bioactive compounds (AID 1345084); details: Gynecologic cancer cell panel viability, ATPlite luminescence, 48 h; series mostly up to 57.5 µM; further: nearly all actives have a fitted effect of over 55% in size
# Method in brief: (§2)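 Cell viability after 48 h drug treatment, ATPlite luminescence readout; five doses.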
# Es-2 = assay: as above; details: Gynecologic cancer cell panel viability, ATPlite luminescence, 48 h; series mostly up to 57.5 µM
# Method in brief: as §2
# Hek293T = assay: as above; details: Gynecologic cancer cell panel viability, ATPlite luminescence, 48 h, control line for the selectivity index; series mostly up to 57.5 µM
# Method in brief: as §2
# MCC-13 = assay: qHTS assay to identify novel small-molecules to repurpose for Merkel cell carcinoma treatment (AID 1296009); details: MCC and control cell lines, CellTiter-Glo viability, 72 h; series mostly up to 46 µM; further: nearly all actives have a fitted effect of over 60% in size
# Method in brief: as §1
# OV90 = assay: Primary qHTS to identify gynecologic anti-cancer compounds using libraries of approved drugs and bioactive compounds (AID 1345084); details: Gynecologic cancer cell panel viability, ATPlite luminescence, 48 h; series mostly up to 57.5 µM; further: nearly all actives have a fitted effect of over 55% in size
# Method in brief: as §2
# MCC-26 = assay: qHTS assay to identify novel small-molecules to repurpose for Merkel cell carcinoma treatment (AID 1296009); details: MCC and control cell lines, CellTiter-Glo viability, 72 h; activity change, negative = cytotoxicity: at 46 µM (top of the series); further: nearly all actives have a fitted effect of over 60% in size
# Method in brief: as §1
# MKL-1 = assay: as above; details: MCC and control cell lines, CellTiter-Glo viability, 72 h; series mostly up to 46 µM
# Method in brief: as §1
# PA-1 = assay: Primary qHTS to identify gynecologic anti-cancer compounds using libraries of approved drugs and bioactive compounds (AID 1345084); details: Gynecologic cancer cell panel viability, ATPlite luminescence, 48 h; series mostly up to 57.5 µM; further: nearly all actives have a fitted effect of over 55% in size
# Method in brief: as §2
# SKOV3 = assay: as above; details: Gynecologic cancer cell panel viability, ATPlite luminescence, 48 h; series mostly up to 57.5 µM
# Method in brief: as §2
# WaGa = assay: qHTS assay to identify novel small-molecules to repurpose for Merkel cell carcinoma treatment (AID 1296009); details: MCC and control cell lines, CellTiter-Glo viability, 72 h; series mostly up to 46 µM; further: nearly all actives have a fitted effect of over 60% in size
# Method in brief: as §1
# CAOV3 = assay: Primary qHTS to identify gynecologic anti-cancer compounds using libraries of approved drugs and bioactive compounds (AID 1345084); details: Gynecologic cancer cell panel viability, ATPlite luminescence, 48 h; series mostly up to 57.5 µM; further: nearly all actives have a fitted effect of over 55% in size
# Method in brief: as §2
# JEG-3 = assay: as above; details: Gynecologic cancer cell panel viability, ATPlite luminescence, 48 h; series mostly up to 57.5 µM
# Method in brief: as §2
# C33A = assay: as above; details: Gynecologic cancer cell panel viability, ATPlite luminescence, 48 h; series mostly up to 57.5 µM
# Method in brief: as §2
# On the % scale 0 is the no-effect control and ±100 the full control effect; potency means the concentration at half of the fitted maximal effect; tags describe the fitted curve by direction and shape.
smiles,measurement,setting,value
c1ccc2[nH]c(-c3cscn3)nc2c1,Potency,MKL-2,inactive
same,Potency,UISO,"inconclusive: 15 µM [inhibitor, partial curve]"
same,Potency,CASKI,"inconclusive: 39.8 µM [cytotoxic, partial curve, poor fit]"
same,Potency,Es-2,"inconclusive: 31.6 µM [cytotoxic, single point]"
same,Potency,Hek293T,"inconclusive: 39.8 µM [cytotoxic, single point]"
Cc1[nH]cnc1CN1CCc2c(c3ccccc3n2C)C1=O,Potency,MCC-13,inactive
same,Potency,OV90,"inconclusive: 39.8 µM [cytotoxic, partial curve, poor fit]"
O=C(CCc1ccc(O)cc1)c1c(O)cc(O)cc1O[C@@H]1O[C@H](CO)[C@H](O)[C@H](O)[C@H]1O,Potency,MCC-26,inactive
same,Potency,MKL-2,"inconclusive: 1.05 µM [inhibitor, full curve]"
CCC(CC)[C@H](NC(C)=O)[C@@H]1[C@H](O)[C@@H](C(=O)O)C[C@@H]1N=C(N)N,Potency,MKL-1,inactive
same,Potency,MKL-2,inactive
NCCO,Potency,MKL-1,inactive
same,Potency,Es-2,inactive
same,Potency,PA-1,inactive
same,Potency,SKOV3,"inconclusive: 17.8 µM [rising, partial curve]"
O=C(O)c1ccccc1Nc1cccc(C(F)(F)F)c1,Potency,MKL-1,inactive
same,Potency,SKOV3,"inconclusive: 5.01 µM [rising, single point]"
COc1ccc2c3c1OC1C[C@@H](O)C=C[C@@]31CCN(C)C2 (some centres undefined),Potency,MCC-26,inactive
CCOC1OC(=O)C[C@H]1NC(=O)[C@@H]1CCCN1C(=O)[C@@H](NC(=O)c1ccc(N)c(Cl)c1)C(C)(C)C (some centres undefined),Potency,MCC-26,inactive
same,Potency,WaGa,"inconclusive: 33.2 µM [inhibitor, single point]"
COc1cc(OC)c(C(=O)CCCN2CCCC2)c(OC)c1,Potency,MKL-2,inactive
same,Potency,WaGa,inactive
CCCCCCCCCCCCCCCC(=O)NCCO,Potency,MCC-26,inactive
same,Potency,CAOV3,"inconclusive: 1.58 µM [cytotoxic, single point]"
COc1cc2nc(N3CCN(C(=O)C4CCCO4)CC3)nc(N)c2cc1OC (centres undefined),Potency,MCC-26,inactive
same,Potency,PA-1,"inconclusive: 39.8 µM [cytotoxic, single point]"
same,Potency,SKOV3,"inconclusive: 5.01 µM [cytotoxic, full curve, poor fit]"
N=C(N)N,Potency,MCC-26,inactive
same,Potency,MKL-2,inactive
same,Potency,PA-1,"inconclusive: 25.1 µM [rising, partial curve, poor fit]"
same,Potency,SKOV3,inactive
O=C(CS)Nc1ccccc1,"activity change, negative = cytotoxicity",MCC-26,inconclusive: -39.3% [inhibitor]
same,Potency,MKL-1,"inconclusive: 33.5 µM [inhibitor, single point]"
same,Potency,MKL-2,"inconclusive: 18.8 µM [inhibitor, partial curve, poor fit]"
same,Potency,UISO,"inconclusive: 26.6 µM [inhibitor, partial curve, poor fit]"
same,Potency,WaGa,inactive
same,Potency,Es-2,inactive
same,Potency,SKOV3,inactive
CCNC(=O)CCCC=CC[C@@H]1[C@H](C=CC(O)CCc2ccccc2)[C@@H](O)C[C@@H]1O (some centres undefined),Potency,MKL-2,"inconclusive: 13.2 µM [inhibitor, partial curve, poor fit]"
same,Potency,WaGa,inactive
c1ccc(CCNc2nc(-c3ccccc3)cs2)cc1,"activity change, negative = cytotoxicity",MKL-2,inconclusive: -35.2% [inhibitor]
same,Potency,UISO,"inconclusive: 33.5 µM [inhibitor, partial curve, poor fit]"
same,Potency,OV90,"inconclusive: 1.78 µM [rising, partial curve, poor fit]"
same,Potency,SKOV3,inactive
C[C@H](NC(=O)C(=O)Nc1ccccc1C(C)(C)C)C(=O)N[C@@H](CC(=O)O)C(=O)COc1c(F)c(F)cc(F)c1F,Potency,MCC-13,"inconclusive: 29.6 µM [inhibitor, single point]"
same,Potency,MKL-2,active: 16.6 µM
same,Potency,UISO,"inconclusive: 26.4 µM [inhibitor, single point]"
same,Potency,WaGa,"inconclusive: 26.4 µM [inhibitor, single point]"
Cc1[nH]c(C=C2C(=O)Nc3ccc(S(=O)(=O)Cc4c(Cl)cccc4Cl)cc32)c(C)c1C(=O)N1CCC[C@H]1CN1CCCC1,Potency,MKL-2,active: 3.72 µM
same,Potency,WaGa,"inconclusive: 23.5 µM [inhibitor, single point]"
Cc1cc2cc3c(C)cc(=O)oc3c(C)c2o1,Potency,MCC-26,inactive
same,Potency,MKL-1,"inconclusive: 11.8 µM [inhibitor, single point]"
same,Potency,MKL-2,"inconclusive: 4.18 µM [inhibitor, full curve, poor fit]"
same,Potency,OV90,inactive
O=C(O)c1cc(O)c2c(c1)C(=O)c1cccc(O)c1C2=O,Potency,MKL-2,inactive
same,Potency,UISO,"inconclusive: 48.1 µM [inhibitor, single point]"
same,Potency,WaGa,inactive
CC(C)(C(=O)O)c1ccc(C(O)CCCN2CCC(C(O)(c3ccccc3)c3ccccc3)CC2)cc1 (centres undefined),Potency,MKL-2,inactive
same,Potency,WaGa,inactive
same,Potency,CAOV3,inactive
same,Potency,CASKI,inactive
same,Potency,OV90,inactive
CCCCC(CC)COC(=O)C(C#N)=C(c1ccccc1)c1ccccc1 (centres undefined),Potency,MKL-1,"inconclusive: 7.5 µM [inhibitor, partial curve, poor fit]"
same,Potency,MKL-2,"inconclusive: 21.1 µM [inhibitor, partial curve] and inconclusive: 29.6 µM [inhibitor, single point]"
same,Potency,UISO,"inconclusive: 23.7 µM [inhibitor, single point] and inconclusive: 33.2 µM [inhibitor, single point]"
same,Potency,WaGa,"inconclusive: 23.7 µM [inhibitor, single point]"
same,Potency,Hek293T,inactive
same,Potency,JEG-3,inactive
C[N+]1(C)[C@@H]2C[C@@H](OC(=O)C(O)(c3cccs3)c3cccs3)C[C@H]1[C@@H]1O[C@@H]12,Potency,MKL-2,inactive
OC[C@]1(O)OC[C@@H](O)[C@H](O)[C@@H]1O,Potency,MCC-13,inactive
same,Potency,SKOV3,inactive
O=c1c(O)c(-c2ccc(O)cc2)oc2cc(O)cc(O)c12,Potency,MKL-1,"inconclusive: 23.5 µM [inhibitor, single point]"
same,Potency,MKL-2,"inconclusive: 16.6 µM [inhibitor, partial curve]"
same,Potency,UISO,"inconclusive: 37.2 µM [inhibitor, single point]"
same,Potency,WaGa,active: 3.72 µM
CNC[C@H](O)c1ccc(O)c(O)c1,Potency,MCC-26,inactive
same,Potency,CASKI,inactive
same,Potency,SKOV3,inactive
N[C@@H](Cc1c[nH]c2ccc(O)cc12)C(=O)O,Potency,MKL-1,inactive
same,Potency,UISO,"inconclusive: 16.6 µM [inhibitor, partial curve] and inconclusive: 11.9 µM [inhibitor, partial curve]"
same,Potency,WaGa,"inconclusive: 37.2 µM [inhibitor, single point] and inconclusive: 33.5 µM [inhibitor, single point]"
same,Potency,C33A,inactive
same,Potency,OV90,"inconclusive: 3.55 µM [cytotoxic, single point]"
same,Potency,PA-1,inactive
COc1cccc(-c2cc(=O)c3ccccc3o2)c1N,Potency,MCC-13,inactive
same,Potency,UISO,inactive
CC1(C)Cc2c(sc(NC(=S)NC(=O)c3ccccc3)c2C(=O)O)CO1,Potency,MKL-2,"inconclusive: 18.7 µM [inhibitor, partial curve, poor fit]"
O=C1C[C@@H](c2ccc(O)cc2)Oc2cc(O)cc(O)c21,Potency,MCC-26,inactive
same,Potency,MKL-1,inactive
c1ccc2c(c1)CCc1ccccc1N2,Potency,MKL-1,inactive
same,Potency,PA-1,inactive
CNC1CCCN(c2c(F)cc3c(=O)c(C(=O)O)cn(C4CC4)c3c2OC)C1 (centres undefined),Potency,MKL-1,inactive
same,Potency,WaGa,"inconclusive: 16.6 µM [inhibitor, partial curve]"
same,Potency,C33A,inactive
same,Potency,Hek293T,inactive
same,Potency,PA-1,inactive
Clc1ccc2nsnc2c1NC1=NCCN1,Potency,MKL-2,"inconclusive: 0.0093 µM [inhibitor, full curve]"
CCCCCCOc1ccccc1C(N)=O,Potency,MCC-13,inactive
same,Potency,CAOV3,inactive
CN(C)c1ccc(C(=C2C=CC(=[N+](C)C)C=C2)c2ccccc2)cc1,Potency,MCC-13,active: 0.0376 µM
same,Potency,MKL-2,active: 0.0133 µM
same,Potency,UISO,active: 0.0668 µM
same,Potency,C33A,active: 2 µM
same,Potency,CAOV3,"inconclusive: 0.501 µM [cytotoxic, full curve, poor fit]"
same,Potency,CASKI,"inconclusive: 0.447 µM [cytotoxic, full curve, poor fit]"
same,Potency,Es-2,active: 1.78 µM
same,Potency,Hek293T,active: 2.51 µM
same,Potency,JEG-3,"inconclusive: 8.91 µM [cytotoxic, full curve, poor fit]"
same,Potency,OV90,active: 11.2 µM
CN1CCC(=C2c3ccccc3CCc3sccc32)CC1,Potency,MKL-2,"inconclusive: 20.9 µM [inhibitor, single point] and inconclusive: 16.8 µM [inhibitor, single point]"
same,Potency,UISO,inactive
same,Potency,WaGa,"inconclusive: 26.6 µM [inhibitor, single point]"
same,Potency,C33A,"inconclusive: 39.8 µM [cytotoxic, single point]"
same,Potency,OV90,"inconclusive: 35.5 µM [cytotoxic, single point]"
same,Potency,SKOV3,"inconclusive: 31.6 µM [cytotoxic, partial curve, poor fit]"
Oc1ccc2ccccc2c1SSc1c(O)ccc2ccccc12,Potency,MKL-1,"inconclusive: 37.2 µM [inhibitor, single point]"
same,Potency,UISO,"inconclusive: 33.2 µM [inhibitor, single point]"
same,Potency,WaGa,"inconclusive: 37.2 µM [inhibitor, single point]"
CCOCCOC(=O)/C=C/c1ccc(OC)cc1,Potency,MKL-1,inactive
